# The whole screen tested about 420,000 compounds, of which about 50,000 (12%) were called active. The inconclusive results got no clear call from the source; some entries with a clear call stand among them for comparison. Calls come from the whole dose curve; as a rule, active = well fitted inhibition curve with a large enough effect; inconclusive = small, poorly fitted or top-dose-only effect; inactive = flat fitted curve, though single readings scatter. Potencies of inconclusive entries are left out as doubtful fits.
# Assay: qHTS for Inhibitors of human tyrosyl-DNA phosphodiesterase 1 (TDP1): qHTS in cells in presence of CPT; note: nearly all actives have a fitted effect of over 55% in size
# Settings: chicken DT40 Tdp1-/-;hTDP1 cells + 20 nM CPT, ATP luminescence, 48 h; activity change, negative = growth inhibition: at 46.2 µM (top of the series)
# Method in brief: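 Chicken DT40 Tdp1-/- cells stably complemented with human TDP1 were seeded at 400 cells/well in medium containing 20 nM camptothecin, exposed to pin-transferred compounds, and grown at 37 °C for at least 48 hr. Viability was read as ATP luminescence.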
# % is set by controls: 0 for no effect and ±100 for the full control effect; potency is the fitted concentration of half-maximal effect; tags give direction and shape of the fitted curve.
Compound,Potency,"activity change, negative = growth inhibition"
O=C(c1ccccc1)N1CCN(S(=O)(=O)c2ccc(Cl)c(C(F)(F)F)c2)CC1,"inconclusive [inhibitor, partial curve, poor fit]",–
COc1ccc(-n2nnnc2SCC(=O)N2CCN(C(=O)c3ccco3)CC2)cc1OC,"inconclusive [inhibitor, single point]",–
COc1ccc(-c2oc3cccnc3c2C#CC2(O)CCCCC2)cc1,"inconclusive [inhibitor, single point]",–
Cc1ccc(NC(=O)C(=O)NNC(=O)c2ccccc2C)cc1Cl,"inconclusive [inhibitor, single point]",–
CCNC(=O)C(Sc1ccccc1)c1ccccc1 (stereo not given),"inconclusive [inhibitor, partial curve]",–
COc1ccccc1CN1CC(C(=O)NCc2ncccc2C)CCC1=O (stereo not given),–,inactive: 0.669%
NC(=S)N/N=C/c1ccc(/C=N/NC(N)=S)cc1,"inconclusive [inhibitor, single point]",–
COc1ccc2c(c1)C(=O)C1(CC2)OC1c1cccnc1 (stereo not given),–,inactive: -21.4%
CCC(=O)N1N=C(c2ccc(C)cc2)CC1c1ccco1 (stereo not given),active: 20.6 µM,–
COc1ccccc1N(C(=O)c1snc(C(N)=O)c1N)C(C(=O)NC1CCCC1)c1ccc2ncccc2c1 (stereo not given),–,inactive: -2.62%
Cc1oc(-c2ccccc2NC(=O)c2ccccc2)nc1CNC(=O)C1CC(=O)OC12CCCCC2 (stereo not given),–,inactive: -4.23% [at 9.04 µM]
O=C(C[n+]1ccc(C(=O)c2ccccc2)cc1)Nc1ccccc1OC(F)F,"inconclusive [inhibitor, single point]",–
O=C(CN1CCN(C(=O)c2ccco2)CC1)NCc1ccc(Cl)cc1,–,inactive: -2.12%
CCc1ccc(NC(=O)Cn2nnc(C(=O)NCc3ccc4c(c3)OCO4)c2N)cc1,"inconclusive [inhibitor, single point]",–
COC(=O)c1cc(O)cc(OC)c1C(=O)c1c(O)cc(C)cc1O,"inconclusive [inhibitor, single point]",–
O=C(/C=C\c1cn(-c2ccccc2)nc1-c1ccc2c(c1)OCCO2)N1CCOCC1,"inconclusive [inhibitor, single point]",–
Nc1cc(C(F)(F)F)ccc1OCC1CCCO1 (stereo not given),–,inactive: -5.2%
Cc1ccc(Cn2c(SCc3ccc(C(=O)N4CCCCCC4)cc3)nc3ccncc32)cc1,"inconclusive [inhibitor, single point]",–
COCc1cc(C)n(CC(=O)N/N=C/c2ccc(-c3ccc(Cl)c(C(=O)O)c3)o2)c(=O)c1C#N,–,inactive: -9.49%
CC(C)(C)n1nc2c(c1NC(=O)c1cc3ccccc3o1)CS(=O)(=O)C2,–,inactive: 1.14%
C=CCn1nc([N+](=O)[O-])nc1Sc1cccc2cccnc12,active: 5.17 µM,–
CCCCc1nc(NCCNC(=O)c2ccccc2)c(C#N)c2c1CSC(C)(C)C2,active: 23.1 µM,–
CC(C)CN1C(=O)C(=O)N(CC(=O)N(C)CC(=O)Nc2ccc(Cl)c(C(F)(F)F)c2)C1=O,"inconclusive [inhibitor, single point]",–
COc1ccc(-c2noc(Cn3c(=O)c4ccccc4n(CC(=O)Nc4cccc(OC)c4)c3=O)n2)cc1,"inconclusive [inhibitor, single point]",–
COc1ccccc1C#CC1=CC(=O)CC(C)(C)C1,active: 16.4 µM,–

Compound,Potency,"activity change, negative = growth inhibition"
COc1ccc(CN2CCc3nc(SCC(=O)Nc4cc(C)cc(C)c4)[nH]c(=O)c3C2)cc1,–,inactive: -24.4%
Cc1ccc2oc(=O)c(-c3ccc(O)cc3)c(C)c2c1,"inconclusive [inhibitor, single point]",–
CCC1CCCCN1C(=O)CSc1nnc(CNC(=O)COc2ccc(Cl)cc2)o1 (stereo not given),"inconclusive [inhibitor, single point]",–
COc1ccc(CNC(=O)C2(CC3CC(c4ccccc4)=NO3)CCN(C(=O)Cc3ccc(F)cc3)CC2)cc1 (stereo not given),"inconclusive [inhibitor, single point]",–
C=CCSc1nc2ccccc2n1Cc1nnc(-c2cccs2)o1,"inconclusive [inhibitor, single point]",–
CCCCCCCCCCCCCCCCOCC(CO)OC(C)=O (stereo not given),–,inactive: 8.73% [at 4.12 µM]
CCn1cnc2cc(NCc3nc4ccccc4n3C)ccc21,–,inactive: -15.3%
COc1ccc(-c2cc(C)no2)cc1S(=O)(=O)NC(C)C,–,inactive: -6.28%
CC(=O)c1cc(-c2ccc(F)cc2)n(CCC(=O)NC(C)(C)C)c1C,–,inactive: 9.1%
CCC(=O)c1ccc(OCC(=O)NCC2COc3ccccc3O2)cc1 (stereo not given),–,inactive: -20.7%
CCC(C)(C)NC(=O)Cc1ccc(F)cc1,–,inactive: 3.57%
Cc1[nH]c(=O)c(C#N)c2c1COC(C)(C)C2,–,inactive: 3.61%
Nc1nc(Cl)nc2c1ncn2[C@@H]1O[C@H](CO)[C@@H](O)[C@@H]1F,active: 0.0021 µM,–
Cn1nnnc1SCCCNCc1ccccc1OCc1ccccc1Cl,active: 5.17 µM,–
Cc1ccc(NC(=O)C2CCCN2C(=O)NC2CCCCC2)cc1F (stereo not given),–,inactive: 5.66%
CC(=O)Nc1ccc(/C=C2\C=Cc3ccccc32)cc1,"inconclusive [inhibitor, single point]",–
Cc1ccc2nc(-c3ccccc3)cc(C(=O)Nc3cccnc3)c2c1,"inconclusive [inhibitor, single point]",–
CC(C)(C)NC(=O)C(c1cccc2ccccc12)n1c(=O)c(-c2ccco2)nc2ccccc21 (stereo not given),active: 23.1 µM,–
O=C(Nc1ccc(OC(=O)c2ccccc2)c(-c2nc3ccccc3s2)c1)c1ccccc1,active: 18.4 µM,–
COc1ccc(C(CNC(=O)c2cccc(S(=O)(=O)Nc3ccc(F)cc3)c2)N2CCOCC2)cc1 (stereo not given),"inconclusive [inhibitor, partial curve]",–
CN(C)C(=O)c1ccc(-c2ccc3ncnc(N4CCOCC4)c3c2)cc1,"inconclusive [inhibitor, single point]",–
O=C1[C@H]2[C@@H](c3ccc(C(F)(F)F)cc3)N[C@]3(CCCN(Cc4ccc(C(F)(F)F)cc4)C3=O)[C@H]2C(=O)N1Cc1ccccc1,active: 18.4 µM,–
CC1CC(C)CN(CCC(=O)Nc2cccc(Cl)c2)C1 (stereo not given),"inconclusive [inhibitor, single point]",–
O=C(O)CC/C(=N/NC(=O)CNC(=O)C(c1ccccc1)c1ccccc1)c1ccccc1,–,inactive: 0.529%
CCOC(=O)c1ccc(NC(=O)c2oc(=O)c3ccccc3c2-c2ccccc2)cc1,"inconclusive [inhibitor, single point]",–

Compound,Potency,"activity change, negative = growth inhibition"
CCOc1ccccc1N1CCN(C(=O)c2cccc(-c3ccc(O)cc3)c2)CC1,active: 16.4 µM,–
CC1(C(=O)NS(=O)(=O)c2cccc(OC(F)F)c2)CCN1C(=O)CC(c1ccccc1)c1ccccc1 (stereo not given),"inconclusive [inhibitor, single point]",–
CCOc1ccccc1NC(=O)Cn1c(=O)n(-c2ccccc2)c(=O)c2oc3ccccc3c21,"inconclusive [inhibitor, single point]",–
CCn1c2ccccc2c2cc(/C=N/n3cnnc3)ccc21,active: 18.4 µM,–
CCOc1ccc(/C=N/NC(=O)c2nnn(-c3nonc3N)c2CN(C)C2CCCCC2)cc1,–,inactive: -20.9%
CC(C)(C)c1ccc(OCCCN2CCCC2)cc1,"inconclusive [inhibitor, single point]",–
CCN(CC)c1ccc([C@H]2[C@@H]3CCCC[C@]3(O)CCN2CC(=O)NCc2ccco2)cc1,"inconclusive [inhibitor, single point]",–
OC[C@@H]1CN(Cc2ccc3c(c2)OCO3)C[C@H](n2cnc3c(NC4CCCC4)ncnc32)O1,"inconclusive [inhibitor, single point]",–
O=C(NCc1ccccc1Cl)C1CCN(c2cnccn2)CC1,–,inactive: -26.8%
O=C(OCCOc1cccc(Cl)c1)c1cc(S(=O)(=O)N2CCCCC2)ccc1N1CCOCC1,active: 14.6 µM,–
COc1ccccc1-c1cc(C(=O)Nc2ccc(F)cc2F)no1,–,inconclusive: -31.3% [inhibitor]
Cc1ccc(NC(=S)N(CCN(C)C)Cc2cccs2)cc1,–,inactive: -3.75%
O=C(Cc1cc(=O)[nH][nH]1)N/N=C/c1cccc(Cl)c1Cl,inactive,–
CCC(C)NC(=O)Cn1cc(S(=O)(=O)N2CCCC2)c(S(=O)(=O)N2CCCC2)c1 (stereo not given),–,inactive: -8.6%
O=C(NCc1cccs1)c1ccc(Cn2c(SCc3cccc(F)c3)nc3cccnc32)cc1,active: 25.9 µM,–
COc1ccc(S(=O)(=O)N2CCOc3ccccc32)cc1,active: 5.17 µM,–
FC(F)(F)c1cccc(Cc2noc(CN3CCCC(OCc4ccccn4)C3)n2)c1 (stereo not given),active: 18.4 µM,–
CCc1cc(C(=O)Nc2cc(Cl)ccc2N2CCN(C)CC2)sc1C,"inconclusive [inhibitor, single point]",–
O=C(/C=C/c1cccc(Br)c1)N1CCN(c2cccc(C(F)(F)F)c2)CC1,–,inactive: -1.84%
O=C(O)CCCCCn1c(SCc2cc(=O)n3cc(Cl)ccc3n2)nc2ccsc2c1=O,"inconclusive [inhibitor, partial curve]",–
Cc1ccc(SCCN2CCN(CCc3ccccc3)CCC2=O)cc1,active: 16.4 µM,–
Cc1csc(NC(=O)CSc2ncnc3ccccc23)n1,"inconclusive [inhibitor, single point]",–
COc1cccc(NC(=O)C(c2ccccc2)N2CCCC2)c1 (stereo not given),–,inactive: -0.774%
COC(=O)[C@@]1(Cc2ccc(F)cc2)[C@H]2c3cc(C(=O)N(C)C)n(Cc4ccccc4)c3C[C@H]2CN1C(=O)c1ccccc1,active: 5.17 µM,–
C/C=C(\C)C(=O)NCCN1C2=NC[C@H](C(C)C)N2C[C@@H]1Cc1ccc(OC)cc1,"inconclusive [inhibitor, partial curve]",–
